This is one part of the list. The full chains were built here from the parent and the listed change. Values near 0.05 are background.

Results on nine variants are retold here after the supplement of paper PMC12217912.

Sequences and labels used below:
B1: TEV protease; numbered along this chain (parent)
chain: MGESLFKGPRDYNPISSSICHLTNESDGHTTSLYGIGFGPFIITNKHLFRRNNGTLVVQSLHGVFKVKDTTTLQQHLVDGRDMIIIRMPKDFPPFPQKLKFREPQREERICLVTTNFQTKSMSSMVSDTSCTFPSGDGIFWKHWIQTKDGQCGSPLVSTRDGFIVGIHSASNFTNTNNYFTSVPKNFMELLTNQEAQQWVSGWRLNADSVLWGGHKVFMVKPEEPFQPVKEATQL

Variants of B1 are the subject of this assay. Put plainly: raw area under fraction-flipped curve 0-4 h after induction (AUC4h, not background-subtracted), DNA-recorder readout of cleavage of the substrate (dimensionless); higher = more cleavage of the substrate by the protease variant. To be noted: temperature: 34 °C; time window: 0-4 h after rhamnose induction.
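Note: Bxb1 expression induced with 0.2% (w/v) L-rhamnose at OD600 near 0.5, cultures sampled hourly, flipped fraction per protease–substrate barcode pair counted by paired-end Illumina sequencing.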

Consider MGESLFKGPRDYNPISSSICHLTNESDGHTTSLYGIGFGPFIITNKHLFRRNNGTLVVQSLHGVFKVKDTTTLQQHLVDGRDMIIIRMPKDFPPFPQKLKFREPQREEAICLVTTNFQTKSMSSMVSDTSCTFPSGDGIFWKHWIQTKDGQCGSPLVSTRDGFIVGIHSASNFTNTNNYFTSVPKNFMELLTNQEAQQWVSGWRLNADSVLWGGHKVFMVKPEEPFQPVKEATQL [R109A], for which the “area with substrate ENLYDQS” value is 0.0415, the “area with substrate ENLYEQS” value amounted to 0.0583, the “area with substrate ENLYGQS” value was 0.0615 and the “area with substrate ENLYHQS” value worked out at 0.0812. Also, the “area with substrate ENLYIQS” value worked out at 0.142, the “area with substrate ENLYKQS” value came to 0.0769, the “area with substrate ENLYLQS” value turned out to be 0.11 and the “area with substrate ENLYMQS” value worked out at 0.091. In addition, the “area with substrate ENLYNQS” value came out at 0.0938, the “area with substrate ENLYRQS” value worked out at 0.0646, the “area with substrate ENLYSQS” value was 0.0953 and the “area with substrate ENLYWQS” value worked out at 0.0686. The “area with substrate ENLYYQS” value was 0.0714.

Take MGESLFKGPRDYNPISSSICHLTNESDGHTTSLYGIGFGPFIITNKHLFRRNNGTLVVQSLHGVFKVKDTTTLQQHLVDGRDMIIIRMPKDFPPFPQKLKFREPQREEDICLVTTNFQTKSMSSMVSDTSCTFPSGDGIFWKHWIQTKDGQCGSPLVSTRDGFIVGIHSASNFTNTNNYFTSVPKNFMELLTNQEAQQWVSGWRLNADSVLWGGHKVFMVKPEEPFQPVKEATQL [R109D]: the “area with substrate ENLYDQS” value was 0.072, the “area with substrate ENLYHQS” value was found to be 0.051, the “area with substrate ENLYIQS” value worked out at 0.107 and the “area with substrate ENLYKQS” value came to 0.0616. Also, the “area with substrate ENLYMQS” value came out at 0.124, the “area with substrate ENLYNQS” value stood at 0.0663, the “area with substrate ENLYPQS” value amounted to 0.0682 and the “area with substrate ENLYQQS” value was 0.0391. Also, the “area with substrate ENLYRQS” value amounted to 0.0633 and the “area with substrate ENLYYQS” value came to 0.0609.

Consider MGESLFKGPRDYNPISSSICHLTNESDGHTTSLYGIGFGPFIITNKHLFRRNNGTLVVQSLHGVFKVKDTTTLQQHLVDGRDMIIIRMPKDFPPFPQKLKFREPQREESICLVTTNFQTKSMSSMVSDTSCTFPSGDGIFWKHWIQTKDGQCGSPLVSTRDGFIVGIHSASNFTNTNNYFTSVPKNFMELLTNQEAQQWVSGWRLNADSVLWGGHKVFMVKPEEPFQPVKEATQL [R109S], for which the “area with substrate ENLYDQS” value came to 0.0508, the “area with substrate ENLYEQS” value came to 0.065, the “area with substrate ENLYGQS” value came out at 0.0868 and the “area with substrate ENLYHQS” value worked out at 0.0657. Further, the “area with substrate ENLYIQS” value is 0.0779, the “area with substrate ENLYKQS” value is 0.0667, the “area with substrate ENLYLQS” value was 0.0599 and the “area with substrate ENLYMQS” value worked out at 0.0914. Further, the “area with substrate ENLYNQS” value was found to be 0.068, the “area with substrate ENLYPQS” value turned out to be 0.0974, the “area with substrate ENLYVQS” value came out at 0.112 and the “area with substrate ENLYWQS” value stood at 0.0867. For the same variant, the “area with substrate ENLYYQS” value turned out to be 0.071.

Regarding MGESLFKGPRDYNPISSSICHLTNESDGHTTSLYGIGFGPFIITNKHLFRRNNGTLVVQSLHGVFKVKDTTTLQQHLVDGRDMIIIRMPKDFPPFPQKLKFREPQREERICLVTTNFQTKSMSSMVSDTSCTFASGDGIFWKHWIQTKDGQCGSPLVSTRDGFIVGIHSASNFTNTNNYFTSVPKNFMELLTNQEAQQWVSGWRLNADSVLWGGHKVFMVKPEEPFQPVKEATQL [P134A], the “area with substrate ENLYDQS” value was 0.0363, the “area with substrate ENLYGQS” value was found to be 0.033, the “area with substrate ENLYKQS” value is 0.0559 and the “area with substrate ENLYMQS” value was determined as 0.0852. Besides, the “area with substrate ENLYQQS” value is 0.07 and the “area with substrate ENLYSQS” value came out at 0.0696.

Turning to MGESLFKGPRDYNPISSSICHLTNESDGHTTSLYGIGFGPFIITNKHLFRRNNGTLVVQSLHGVFKVKDTTTLQQHLVDGRDMIIIRMPKDFPPFPQKLKFREPQREERICLVTTNFQTKSMSSMVSDTSCTFPSGDGIFWKEWIQTKDGQCGSPLVSTRDGFIVGIHSASNFTNTNNYFTSVPKNFMELLTNQEAQQWVSGWRLNADSVLWGGHKVFMVKPEEPFQPVKEATQL [H143E], the “area with substrate ENLYDQS” value turned out to be 0.0622, the “area with substrate ENLYEQS” value amounted to 0.0692, the “area with substrate ENLYGQS” value was found to be 0.0477 and the “area with substrate ENLYHQS” value was found to be 0.0537. In addition, the “area with substrate ENLYKQS” value was 0.0619, the “area with substrate ENLYMQS” value was 0.0536, the “area with substrate ENLYNQS” value was found to be 0.0596 and the “area with substrate ENLYRQS” value turned out to be 0.0576. Further, the “area with substrate ENLYSQS” value came out at 0.0716, the “area with substrate ENLYWQS” value was determined as 0.0569 and the “area with substrate ENLYYQS” value turned out to be 0.0576.

MGESLFKGPRDYNPISSSICHLTNESDGHTTSLYGIGFGPFIITNKHLFRRNNGTLVVQSLHGVFKVKDTTTLQQHLVDGRDMIIIRMPKDFPPFPQKLKFREPQREERICLVTTNFQTKSMSSMVSDASCTFPSGDGIFWKHWIQTKDGQCGSPLVSTRDGFIVGIHSASNFTNTNNYFTSVPKNFMELLTNQEAQQWVSGWRLNADSVLWGGHKVFMVKPEEPFQPVKEATQL [T129A]: the “area with substrate ENLYDQS” value worked out at 0.0428, the “area with substrate ENLYEQS” value turned out to be 0.073, the “area with substrate ENLYGQS” value was 0.0698 and the “area with substrate ENLYHQS” value came out at 0.0358. The “area with substrate ENLYKQS” value amounted to 0.0338, the “area with substrate ENLYMQS” value was found to be 0.0832, the “area with substrate ENLYNQS” value is 0.0726 and the “area with substrate ENLYQQS” value worked out at 0.0558. The “area with substrate ENLYRQS” value was 0.0481, the “area with substrate ENLYVQS” value turned out to be 0.119 and the “area with substrate ENLYWQS” value was 0.0751.

In the case of MGESLFKGPRDYNPISSSICHLTNESDGHTTSLYGIGFGPFIITNKHLFRRNNGTLVVQSLHGVFKVKDTTTLQQHLVDGRDMIIIRMPKDFPPFPQKLKFREPQREERICLVTTNFQTKSMSSMVSDRSCTFPSGDGIFWKHWIQTKDGQCGSPLVSTRDGFIVGIHSASNFTNTNNYFTSVPKNFMELLTNQEAQQWVSGWRLNADSVLWGGHKVFMVKPEEPFQPVKEATQL [T129R], the “area with substrate ENLYDQS” value stood at 0.0683, the “area with substrate ENLYEQS” value came to 0.0728, the “area with substrate ENLYGQS” value is 0.0557 and the “area with substrate ENLYHQS” value came out at 0.0678. Besides, the “area with substrate ENLYKQS” value came to 0.0569, the “area with substrate ENLYMQS” value stood at 0.0893, the “area with substrate ENLYNQS” value is 0.0528 and the “area with substrate ENLYPQS” value is 0.0748. The “area with substrate ENLYRQS” value turned out to be 0.0799 and the “area with substrate ENLYWQS” value came to 0.0736.

As to MGESLFKGPRDYNPISSSICHLTNESDGHTTSLYGIGFGPFIITNKHLFRRNNGTLVVQSLHGVFKVKDTTTLQQHLVDGRDMIIIRMPKDFPPFPQKLKFREPQREERIQLVTTNFQTKSMSSMVSDTSCTFPSGDGIFWKHWIQTKDGQCGSPLVSTRDGFIVGIHSASNFTNTNNYFTSVPKNFMELLTNQEAQQWVSGWRLNADSVLWGGHKVFMVKPEEPFQPVKEATQL [C111Q], the “area with substrate ENLYDQS” value is 0.0561, the “area with substrate ENLYEQS” value came to 0.0604, the “area with substrate ENLYGQS” value is 0.0842 and the “area with substrate ENLYHQS” value stood at 0.0803. Further, the “area with substrate ENLYIQS” value came out at 0.118, the “area with substrate ENLYKQS” value came out at 0.0326, the “area with substrate ENLYMQS” value came to 0.0878 and the “area with substrate ENLYNQS” value was determined as 0.0434. For the same variant, the “area with substrate ENLYPQS” value was determined as 0.0724, the “area with substrate ENLYSQS” value amounted to 0.0834, the “area with substrate ENLYVQS” value amounted to 0.111 and the “area with substrate ENLYWQS” value amounted to 0.0975.

MGESLFKGPRDYNPISSSICHLTNESDGHTTSLYGIGFGPFIITNKHLFRRNNGTLVVQSLHGVFKVKDTTTLQQHLVDGRDMIIIRMPKDFPPFPQKLKFREPQREERICLVTTNFQTKSMLSMVSDTSCTFPSGDGIFWKHWIQTKDGQCGSPLVSTRDGFIVGIHSASNFTNTNNYFTSVPKNFMELLTNQEAQQWVSGWRLNADSVLWGGHKVFMVKPEEPFQPVKEATQL [S123L]: the “area with substrate ENLYDQS” value was found to be 0.047, the “area with substrate ENLYEQS” value was 0.09, the “area with substrate ENLYGQS” value turned out to be 0.0584 and the “area with substrate ENLYHQS” value is 0.0693. Further, the “area with substrate ENLYIQS” value was determined as 0.11, the “area with substrate ENLYLQS” value was determined as 0.0871, the “area with substrate ENLYMQS” value came out at 0.0826 and the “area with substrate ENLYTQS” value amounted to 0.0774. Further, the “area with substrate ENLYWQS” value was 0.0806 and the “area with substrate ENLYYQS” value was determined as 0.0694.
